Article PMC4336329 (PLoS ONE, 2015)
In all, about 310,000 compounds went through this assay and about 14,000 (4.5%) showed an effect of 50% or more. Effects have a minus sign here. Some of the results follow.

molecular target: human ether-à-go-go-related gene (hERG) potassium channel (human, UniProt Q12809); assay: primary screen, population patch clamp on CHO cells stably expressing hERG
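Further: peak tail current of the secondary pulse compared with the same well before compound.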

Sequence of human ether-à-go-go-related gene (hERG) potassium channel (Q12809 whole entry, looked up): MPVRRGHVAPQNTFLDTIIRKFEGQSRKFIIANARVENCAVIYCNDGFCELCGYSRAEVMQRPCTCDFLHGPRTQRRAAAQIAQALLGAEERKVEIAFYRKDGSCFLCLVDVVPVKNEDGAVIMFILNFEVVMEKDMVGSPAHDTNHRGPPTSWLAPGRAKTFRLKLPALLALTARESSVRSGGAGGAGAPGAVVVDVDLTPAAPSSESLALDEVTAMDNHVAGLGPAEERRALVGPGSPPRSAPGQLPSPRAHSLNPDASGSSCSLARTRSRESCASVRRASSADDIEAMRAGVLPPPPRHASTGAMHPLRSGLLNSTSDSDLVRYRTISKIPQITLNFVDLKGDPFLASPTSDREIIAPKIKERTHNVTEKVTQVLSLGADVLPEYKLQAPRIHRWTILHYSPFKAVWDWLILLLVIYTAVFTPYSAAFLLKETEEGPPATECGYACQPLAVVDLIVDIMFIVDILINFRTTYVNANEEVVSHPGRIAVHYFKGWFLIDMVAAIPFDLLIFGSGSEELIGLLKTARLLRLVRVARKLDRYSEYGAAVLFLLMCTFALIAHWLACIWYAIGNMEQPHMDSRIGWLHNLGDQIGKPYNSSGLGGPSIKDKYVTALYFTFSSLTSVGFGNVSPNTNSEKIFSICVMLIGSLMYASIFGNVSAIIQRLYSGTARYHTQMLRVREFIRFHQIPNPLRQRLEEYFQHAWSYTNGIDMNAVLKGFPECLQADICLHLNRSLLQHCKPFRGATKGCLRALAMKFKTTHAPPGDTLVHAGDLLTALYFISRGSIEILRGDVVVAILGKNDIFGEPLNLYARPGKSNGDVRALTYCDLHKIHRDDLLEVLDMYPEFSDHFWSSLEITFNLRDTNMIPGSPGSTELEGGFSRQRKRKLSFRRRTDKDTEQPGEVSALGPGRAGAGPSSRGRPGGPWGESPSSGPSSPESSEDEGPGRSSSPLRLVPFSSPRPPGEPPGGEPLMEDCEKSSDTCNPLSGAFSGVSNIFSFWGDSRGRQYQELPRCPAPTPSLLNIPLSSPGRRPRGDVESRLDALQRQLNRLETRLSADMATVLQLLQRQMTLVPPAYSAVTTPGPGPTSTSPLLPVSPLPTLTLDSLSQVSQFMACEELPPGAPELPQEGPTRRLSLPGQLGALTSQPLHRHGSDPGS

First: COc1ccc(C[C@H]2CN3C(=NC[C@@H]3C)N2CCNC(=O)CCC2CCCCC2)cc1
Second: CC1CCN(S(=O)(=O)c2cccc(C(=O)NC3CCCCC3)c2)CC1
The “hERG current change (%, negative = inhibition) at 10uM” value of the first is lower: -69% for the first, 5.82% for the second.

Compared with CCOC(=O)c1nn(-c2ccc(F)cc2)c(C)c1C(C)=O, CCOC(=O)N1CCN(CC(=O)Nc2ccc(F)cc2)CC1 is lower in “hERG current change (%, negative = inhibition) at 10uM” value: 1.61% for the first, -82% for the second.

Going from O=C(O)c1ccc(C(=O)O)c(C(=O)c2ccc(NC(=O)c3ccccc3)cc2)c1 to O=C(CSc1nc2ccccc2c(=O)n1Cc1ccccc1)Nc1ccc(Br)cc1C(=O)O, the “hERG current change (%, negative = inhibition) at 10uM” value falls from 8.99% to 4.08%.

Compared with O=C(Nc1ccc2ccccc2c1)C(=O)C1C(=O)Nc2ccccc21 (centres unmarked), COc1ccc2ccccc2c1CNC(C)c1ccccc1.O=C(O)C(=O)O (centres unmarked) is lower in “hERG current change (%, negative = inhibition) at 10uM” value: 4.86% for the first, -44.4% for the second.

Compared with CCOc1ccc2ccccc2c1/C=N/NC(=O)c1ccc(C)nc1, CCn1ncc(/C=N\NC(=O)c2ccc3c(c2)c(C)c(C)n3Cc2ccccc2)c1C is higher in “hERG current change (%, negative = inhibition) at 10uM” value: -5.49% for the first, -0.323% for the second.

Going from N#Cc1nc(Cc2cccc3ccccc23)oc1NCCCn1ccnc1 to Cc1ccc(OCc2nnc(SCC(=O)NCc3ccccc3)n2C)cc1, the “hERG current change (%, negative = inhibition) at 10uM” value rises from -71% to -34.5%.

Going from COc1ccc(-c2nn(-c3ccccc3)cc2C(=O)OCC(=O)c2ccc(C)c([N+](=O)[O-])c2)cc1 to COC(=O)[C@H](C)NC(=O)Nc1ccc(Oc2ccccc2)cc1, the “hERG current change (%, negative = inhibition) at 10uM” value falls from 11.4% to 0.141%.

First: O=C(N/N=C/c1cccc(Oc2ccccc2)c1)c1ccc(O)cc1O
Second: COc1ccc(/C=C(\C#N)C(=O)NCCc2ccccc2)cc1OCc1ccccc1
The “hERG current change (%, negative = inhibition) at 10uM” value of the first is higher: -7.07% for the first, -10.9% for the second.

Going from CCS(=O)(=O)NCC(c1cccnc1)N1CCN(c2ccccc2)CC1 (centres unmarked) to O=C(CCCN1C(=O)c2cccc3cccc(c23)C1=O)N1CCN(c2ccccc2O)CC1, the “hERG current change (%, negative = inhibition) at 10uM” value rises from -28.1% to -9.63%.

Compared with CCN(CC)S(=O)(=O)c1cccc(-c2n[nH]c(=S)n2C(C)COC)c1 (centres unmarked), Cc1cccc(Nc2n[nH]c(C)c2[N+](=O)[O-])c1 is lower in “hERG current change (%, negative = inhibition) at 10uM” value: 44.9% for the first, -15.5% for the second.

First: COC(=O)c1ccsc1NC(=O)c1ccco1
Second: Cc1ccc(C)c(NC(=S)NCc2cccs2)c1
The “hERG current change (%, negative = inhibition) at 10uM” value of the first is higher: 13.8% for the first, -5.12% for the second.

First: Cc1nc2ccc(NC(=O)Cc3ccc(Br)cc3)cc2s1
Second: Cc1cccc(C)c1NC(=O)CCS(=O)(=O)c1ccc(Br)cc1
The “hERG current change (%, negative = inhibition) at 10uM” value of the first is lower: 6.84% for the first, 31.2% for the second.

Compared with O=C(Cc1ccccc1)c1c[nH]c(C(=O)NC2CCCC2)c1, O=C(Nc1ccccc1C(F)(F)F)NC1CCCCCCC1 is lower in “hERG current change (%, negative = inhibition) at 10uM” value: 10.1% for the first, -10.7% for the second.

Compared with Cc1noc(C)c1S(=O)(=O)N1CCC(C(=O)N2CCC(C)CC2)CC1, Cc1nn(C)c(C)c1S(=O)(=O)N1CCC(CO)(CC2CCCCO2)CC1 (centres unmarked) is higher in “hERG current change (%, negative = inhibition) at 10uM” value: 0.849% for the first, 11.9% for the second.

First: OCC(CO)(CO)n1cnnn1
Second: CCOc1ccc(-c2nnc(SCC(=O)O)n2Cc2ccccc2)cc1
The “hERG current change (%, negative = inhibition) at 10uM” value of the first is lower: 12.3% for the first, 24.6% for the second.

First: O=C(O)CNC(=O)/C(=C/c1ccco1)NC(=O)/C=C/c1ccccc1
Second: C[C@H](NC(=O)[C@H](Cc1ccccc1)n1c(=O)[nH]c2ccccc2c1=O)C(=O)N1CCC[C@H]1C(=O)O
The “hERG current change (%, negative = inhibition) at 10uM” value of the first is lower: 2.62% for the first, 14.7% for the second.

Compared with Cc1nnc(SCC(=O)N(CC(C)C)C2CCS(=O)(=O)C2)s1 (centres unmarked), COc1ccc(C(C(=O)NC(C)(C)C)N(CC2CCCO2)C(=O)CCC(=O)Nc2cc(C)on2)cc1 (centres unmarked) is higher in “hERG current change (%, negative = inhibition) at 10uM” value: 1.37% for the first, 6.44% for the second.

First: CCCC(=O)Nc1ccc(Cc2ccc(NC(=O)CCC)c(C(=O)O)c2)cc1C(=O)O
Second: Cc1ccc(C)c(C(=O)COC(=O)c2ccc(C)c(S(=O)(=O)N3CCOCC3)c2)c1
The “hERG current change (%, negative = inhibition) at 10uM” value of the first is higher: 13.6% for the first, -32% for the second.

First: O=C(NN=C1CCCC1)NC1CCCCC1
Second: O=C(NCCCN1CCCC1=O)C1CCCO1 (centres unmarked)
The “hERG current change (%, negative = inhibition) at 10uM” value of the first is lower: 3.12% for the first, 17.7% for the second.

Going from CC1CCN(C(=O)NC(=O)c2ccc(Cl)cc2)CC1 to CC(OC(=O)CNC(=O)c1ccc(Br)cc1)C(=O)NC1CCCCC1C (centres unmarked), the “hERG current change (%, negative = inhibition) at 10uM” value rises from -6% to -3.19%.

Compared with CCN(C(=O)c1c(N)cnn1C)c1ccccc1, CCN1CCc2nc3sc(C(=O)Nc4cccnc4Cl)c(N)c3cc2C1 is lower in “hERG current change (%, negative = inhibition) at 10uM” value: -0.557% for the first, -13.6% for the second.

Going from Cc1ccc(N(CC(=O)N2CCN(c3ccc(F)cc3)CC2)S(=O)(=O)c2c(C)nn(C)c2C)cc1 to Cc1ccc(-n2c(C3CC3c3ccc(Cl)cc3)n[nH]c2=S)cc1 (centres unmarked), the “hERG current change (%, negative = inhibition) at 10uM” value rises from -65.8% to 9.71%.

Compared with C/C(=C\C(=O)Nc1cscc1C)C(=O)O, Cc1ccnc2nc(C(=O)OCC(=O)Nc3ccc([N+](=O)[O-])cc3Br)nn12 is lower in “hERG current change (%, negative = inhibition) at 10uM” value: 14.3% for the first, -11.8% for the second.

Going from Cc1cc2oc(=O)cc(CSc3nc(N)cc(N)n3)c2cc1C(C)C to COc1ccc(N2C(=O)/C(=C\c3ccco3)N=C2SCC(=O)NC(C)C)cc1Cl, the “hERG current change (%, negative = inhibition) at 10uM” value rises from 1.55% to 4.42%.

First: COc1ccc(OC)c(/C=C/c2c([N+](=O)[O-])c(=O)n(C)c(=O)n2C)c1
Second: Cc1ccc(C(=O)NCCSCc2ccc(Cl)cc2Cl)cc1[N+](=O)[O-]
The “hERG current change (%, negative = inhibition) at 10uM” value of the first is higher: -2.67% for the first, -13.3% for the second.

Compared with CCOc1cc(C(=O)N=c2sccn2C)ccc1OC(F)F, COc1ccc(C(=O)NCc2csc(-c3cccs3)n2)cc1 is lower in “hERG current change (%, negative = inhibition) at 10uM” value: 21.5% for the first, -13.8% for the second.

Going from Cc1ccc(Nc2nc(CSc3nnc(-c4ccccc4)n3C)cs2)cc1 to Cc1ccc(-c2nc(NC(=O)CSc3ncn[nH]3)ns2)cc1, the “hERG current change (%, negative = inhibition) at 10uM” value rises from -35.2% to -14.3%.

Compared with CCc1ccc(NC(=S)Nc2cccc(OC)c2)cc1, OC1(c2ccccc2)Cc2cccc[n+]2C1c1ccccc1.[Br-] (centres unmarked) is higher in “hERG current change (%, negative = inhibition) at 10uM” value: 6.52% for the first, 11.6% for the second.
